The list shows a part of the results.

B1: ENSG00000136451:be:win_101|CDS|ENSG00000136451|bound_else_gene|NA|bound_elsewhere_windowed (ssRNA)
RNA: GGGAGUUCUACAGUCCGACGAUCCCGUGGAGCCCCCUGAUCAGAAACCAUUGCUUCCAAUACCAAUAACUCAGAAACCUCAGGGUGCACCAGAAACAUUAAAGGAUGCCAUUGGGAUUAAAAAAGAAAAACCCAAAACUUCAUCAACAGAGGAUUGAGCAUCA
B2: ENSG00000070961:be:win_5701|3pUTR|ENSG00000070961|bound_else_gene|NA|bound_elsewhere_windowed (ssRNA)
RNA: GGGAGUUCUACAGUCCGACGAUCCAUUUACCCUAAAUAAGGGUGGUGGACUAUCUUGAAGAACCCUUUCAACUCUAAAAAUUGACCCUAUCAACUGGAGAGCCCACAAGGCAUAGGGAAUAGAGAAAAGGGAAAUGUUUUCAGCAACAGAGGAUUGAGCAUCA
B3: chr9:37357341:37357442:+|3pUTR|ENSG00000147905|unk|FALSE|unique (ssRNA)
RNA: GGGAGUUCUACAGUCCGACGAUCAUUAUCUAUGAUUAAAUAAAGUGAGUUUUUGGUUUUGUUUUUUUAAUUUCAGCCAUUCCUAGAGUUACUGAAUAUCCAUGGAGAUCUCAAUUCUCUGUGUCCAACAGGAUAUUAGGUAAGCAACAGAGGAUUGAGCAUCA
B4: chrX:130230552:130230660:-|CDS|ENSG00000056277|unk|total|mutant (ssRNA)
RNA: GGGAGUUCUACAGUCCGACGAUCAUCAGAACGUCCAUGUGAUGAAGACAAGACUGAUUCAGAGACAGGAAAGUUGAUCAUGUCCGUCAAUGAGUUUUAUUAUGGAAGGCAUGAAGGAGUCACUGAGAAAGAGCCAAAGACUUACAACAGAGGAUUGAGCAUCA
B5: chr3:120327094:120327202:-|3pUTR|ENSG00000163428|unk|total|mutant (ssRNA)
RNA: GGGAGUUCUACAGUCCGACGAUCGAAGAGAAGUCACCAAACACCCCGGGACAGUCCCCGGCCCCGAAAGCCCUUUAAAGUAACCGUGAAUUGUUUUAAAAUUAAGUUAUUGAGUGGCCUACUGACUACCAUCCAAAAACCUUUCAACAGAGGAUUGAGCAUCA
B6: chr1:150647640:150647741:-|3pUTR|ENSG00000143457|unk|FALSE|unique (ssRNA)
RNA: GGGAGUUCUACAGUCCGACGAUCAGAUUCAAUUACCUGGAUGUCAAAGUCCUAGAGCCAGAAAUAUAUUCUCUCAUCCCUCUUAGCAUUCUCUUGCUCCCUCAUUCACUAGGGCAAAUGUCUAAAUGAAGAAAAGUCUCUCUCCAACAGAGGAUUGAGCAUCA
B7: chr1:152579660:152579936:-|CDS|ENSG00000163202|control|control|control (ssRNA)
RNA: GGGAGUUCUACAGUCCGACGAUCGUACAGUGUCUGCCUCCAGCUUCCUCUGGCUGUGCCCCAAGCUCUGGGGGCUGUGGCCCUAGCUCCGAGGGCGGCUGCUUCCUGAACCACCACAGGCGCCACCACCGAUGCCGGCGCCAGCAACAGAGGAUUGAGCAUCA
B8: ENSG00000142634:stop:overlap|stop_codon|ENSG00000142634|stop_codon|NA|stop_codon (ssRNA)
RNA: GGGAGUUCUACAGUCCGACGAUCAGGCGGAGGAGAUGAAGCAGCGGAAAGCGGCCUUCAAGGAGCUGCAGUCCACCUUUAAGUAGCGGGGGCUGCAGCCGACCGCCCUGCUCCGGCCCCAGUGUGGUGGGCGAGGGUGGCGCACAACAGAGGAUUGAGCAUCA
B9: chr22:35295155:35295256:+|3pUTR|ENSG00000100281|unk|FALSE|unique (ssRNA)
RNA: GGGAGUUCUACAGUCCGACGAUCUUUCUUCUCCUGGCCCUGACAGAGCACUACAGCAUCAAAGUAAAUCUUUGGGGACAGUGUAGCCCAUCUGCAUCCUAUUUAAUUUCUUCCCUUCUCCCCACCAGUGUUGUCACAGGGCUACAACAGAGGAUUGAGCAUCA
B10: chr4:138171397:138171528:-|3pUTR|ENSG00000151012|msi1|total|mutant (ssRNA)
RNA: GGGAGUUCUACAGUCCGACGAUCAUUAUGGCAAAGAGGAGAGAAAGAAAUUUAUUUUACAUUGACAUUGCAUUGCUUCCCCUCCGAUACCAAUUCCGAUAACAAACACUCAUGCUUUAAUGGAUUAUACCCAGAGCACUUUGACAACAGAGGAUUGAGCAUCA
B11: chr16:2602459:2602560:+|3pUTR|ENSG00000140992|msi1|FALSE|bound_elsewhere (ssRNA)
RNA: GGGAGUUCUACAGUCCGACGAUCAACUAUGUACAGAGAACUUUUUACAAAAGGCAGACCUUUUUUAAGCUGUGUAACCCACAUAGCCUAACCACCUGGCAGAAUGACUACGAAUAGGGGUCAUUGUGCUGGUAAAAGCCUCUACAACAGAGGAUUGAGCAUCA
B12: chr14:44924370:44924471:-|3pUTR|ENSG00000179454|unk|FALSE|unique (ssRNA)
RNA: GGGAGUUCUACAGUCCGACGAUCACCUUUUUAGCAUCAGGGUUUUAUUUUAUUUAUGUUUACACACUAAAGUGUCAUUUAACUAGUUAAGAAUUGUAUUCUUUUUUAUUUUAAAGGUUAUUUGUGUGUAUCAUUGUGGUAAUGCAACAGAGGAUUGAGCAUCA
B13: chr17:35724233:35724342:+|3pUTR|ENSG00000006125|msi1_unk|FALSE|overlapping (ssRNA)
RNA: GGGAGUUCUACAGUCCGACGAUCUCCUGGAGGCAGAGAUGCAGUUACCUACCCUAGCUUUUGAUGGGUUCUCUUACCUGUAGUAGCCUUAUCCCUGGUCAUUUGGAUUUUCAGUUUGCUUUUUUCUUUUUUUCCCCUCCAAACCAACAGAGGAUUGAGCAUCA
B14: ENSG00000170312:stop:overlap|stop_codon|ENSG00000170312|stop_codon|NA|stop_codon (ssRNA)
RNA: GGGAGUUCUACAGUCCGACGAUCGCAAAAUGGCACUGAAUCAUCCAUAUUUUAAUGAUUUGGACAAUCAGAUUAAGAAGAUGUAGCUUUCUGACAAAAAGUUUCCAUAUGUUAUAUCAACAGAUAGUUGUGUUUUUAUUGUUACAACAGAGGAUUGAGCAUCA

For the test, the target named is MSI1 full-length (mouse, UniProt Q61474 1-362). Nature of the test: nsRBNS (natural sequence RNA bind-n-seq); RBNS binding buffer (assumed for nsRBNS): 25 mM Tris pH 7.5, 150 mM KCl, 3 mM MgCl2, 0.01% Triton X-100, 500 ug/ml BSA, 20 U/ml SUPERase-In, 4 C; UNK is unkempt and MSI1 is Musashi-1; names of the RNAs are library labels; protein concentration not given here; high values mean tight binding.
UniProt Q61474, sequence (Q61474 whole entry): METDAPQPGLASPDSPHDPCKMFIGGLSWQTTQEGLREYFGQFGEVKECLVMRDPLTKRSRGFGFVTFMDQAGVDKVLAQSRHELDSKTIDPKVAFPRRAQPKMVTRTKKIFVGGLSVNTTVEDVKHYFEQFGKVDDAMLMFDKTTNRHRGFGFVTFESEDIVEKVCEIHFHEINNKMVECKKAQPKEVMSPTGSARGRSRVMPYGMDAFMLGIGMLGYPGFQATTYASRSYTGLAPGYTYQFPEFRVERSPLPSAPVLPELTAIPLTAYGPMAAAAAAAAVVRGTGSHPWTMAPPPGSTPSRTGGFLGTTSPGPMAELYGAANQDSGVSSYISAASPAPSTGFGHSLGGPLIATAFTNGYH
Molecule B1 gave a binding signal of 0.491 enrichment R.

Turning to B2, the binding signal stood at 0.233 enrichment R.

The molecule B3 returned a binding signal of 0.98 enrichment R.

B4 gave a binding signal of 0.399 enrichment R.

For the molecule B5, the binding signal was found to be 0.474 enrichment R.

In turn, B6 registered a binding signal of 0.58 enrichment R.

Molecule B7 registered a binding signal of 0.609 enrichment R.

Molecule B8 returned a binding signal of 1.82 enrichment R.

On to B9, for which the binding signal is 0.894 enrichment R.

As for B10, the binding signal turned out to be 0.495 enrichment R.

Molecule B11 showed a binding signal of 0.46 enrichment R.

The molecule B12 yielded a binding signal of 1.2 enrichment R.

Molecule B13 returned a binding signal of 1.07 enrichment R.

B14: the binding signal is 0.414 enrichment R.

Values taken from PMC12136788.
